This passage reports binding results from paper PMC2238750.

Amino acid sequences for entries named in this document (tags omitted).
UniProt Q9Y6I3: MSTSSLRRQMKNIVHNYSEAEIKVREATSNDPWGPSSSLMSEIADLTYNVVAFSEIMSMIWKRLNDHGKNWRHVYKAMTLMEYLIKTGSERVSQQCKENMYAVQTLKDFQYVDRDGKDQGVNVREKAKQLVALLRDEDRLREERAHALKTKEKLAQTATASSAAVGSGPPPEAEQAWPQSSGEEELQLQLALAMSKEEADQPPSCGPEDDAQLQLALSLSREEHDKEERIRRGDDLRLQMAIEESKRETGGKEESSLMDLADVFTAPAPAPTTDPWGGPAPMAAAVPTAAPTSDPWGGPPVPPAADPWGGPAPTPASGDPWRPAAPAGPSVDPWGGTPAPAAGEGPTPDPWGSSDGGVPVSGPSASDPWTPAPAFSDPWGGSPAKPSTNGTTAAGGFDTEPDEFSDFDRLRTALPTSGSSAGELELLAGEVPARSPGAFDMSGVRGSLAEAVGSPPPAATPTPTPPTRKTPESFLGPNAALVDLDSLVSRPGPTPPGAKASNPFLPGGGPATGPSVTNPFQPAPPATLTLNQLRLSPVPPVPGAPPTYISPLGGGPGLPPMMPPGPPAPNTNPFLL

Results are given in words; binding and its absence hold for the method and conditions named. Binding seen in cells or lysates may run through a third protein. Some binding calls cover weakened binding; strength is not graded here. Tags and fused reporters may be left off the sequences shown.

In test [1] the target is T1, GST-POB1 EH domain F344A (human) (UniProt Q8NFH8).
T1 sequence: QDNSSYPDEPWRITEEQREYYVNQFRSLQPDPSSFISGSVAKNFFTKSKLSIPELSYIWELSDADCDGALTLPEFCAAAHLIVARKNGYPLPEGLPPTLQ
Kind of test: pull-down; Epsin1 pull down with GST-POB1 EH domain and its mutants; data not shown; only the target purified.

The target of test [2] is T2, EH domain of POB1 fused to GST (human) (UniProt Q8NFH8).
T2 sequence: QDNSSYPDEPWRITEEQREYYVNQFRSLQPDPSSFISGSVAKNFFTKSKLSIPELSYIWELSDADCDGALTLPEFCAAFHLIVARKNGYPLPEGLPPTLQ
The test is described as above.

Test [3] concerns the target T3, GST-Eps15 C-terminal construct D (623-670) (mouse) (UniProt P42567).
T3 sequence: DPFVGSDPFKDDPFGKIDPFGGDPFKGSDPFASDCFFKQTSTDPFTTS
Description: pull-down; GST-Eps15 fragments on glutathione-sepharose beads incubated with lysate of Hek 293Phoenix cells expressing Myc-POB1; EH buffer, 2 h at 4 °C; anti-Myc blot; only the target purified.

Test [4] addresses T4, GST-Eps15 C-terminal construct B (623-650) (mouse) (UniProt P42567).
T4 sequence: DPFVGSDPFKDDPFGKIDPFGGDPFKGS
The description is as above.

Test [5] has as its target T5, GST-Eps15 C-terminal construct C (623-660) (mouse) (UniProt P42567).
T5 sequence: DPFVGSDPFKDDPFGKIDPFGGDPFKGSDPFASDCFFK
The description is as above.

The target in test [6] is T6, GST-Eps15 C-terminal construct N (670-743) (mouse) (UniProt P42567).
T6 sequence: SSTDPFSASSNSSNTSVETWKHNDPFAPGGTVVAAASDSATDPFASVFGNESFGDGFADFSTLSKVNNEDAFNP
The test is described as above.

The target of test [7] is T7, GST-Eps15 C-terminal construct M (623-743) (mouse) (UniProt P42567).
T7 sequence: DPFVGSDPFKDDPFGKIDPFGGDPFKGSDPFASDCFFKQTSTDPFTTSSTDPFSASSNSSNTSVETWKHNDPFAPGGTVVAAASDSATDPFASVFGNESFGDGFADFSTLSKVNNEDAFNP
The description is as above.

Test [8] addresses T8, GST-Eps15 C-terminal construct G (623-700) (mouse) (UniProt P42567).
T8 sequence: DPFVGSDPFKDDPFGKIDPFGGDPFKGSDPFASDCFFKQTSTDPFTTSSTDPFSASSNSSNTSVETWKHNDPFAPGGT
Described as above.

The target in test [9] is T9, GST-Eps15 C-terminal construct A (623-640) (mouse) (UniProt P42567).
T9 sequence: DPFVGSDPFKDDPFGKID
Described as above.

In test [10] the target is T10, GST-Eps15 C-terminal construct F (623-690) (mouse) (UniProt P42567).
T10 sequence: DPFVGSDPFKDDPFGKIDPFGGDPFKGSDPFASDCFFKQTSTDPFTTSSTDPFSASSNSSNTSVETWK
Described as above.

Test [11] addresses T11, GST-POB1 EH domain W324A (human) (UniProt Q8NFH8).
T11 sequence: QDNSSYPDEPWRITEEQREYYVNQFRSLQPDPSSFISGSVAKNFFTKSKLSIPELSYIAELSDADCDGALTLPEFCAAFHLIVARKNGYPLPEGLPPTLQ
Description: pull-down; GST fusions (50 ug) on glutathione-sepharose beads incubated with Hek293 cell extract; EH buffer, 2 h at 4 °C; endogenous Eps15 detected with anti-Eps15 blot; only the target purified.

Test [12] deals with T1, GST-POB1 EH domain F344A (human). Described as above.
Test [13] deals with T12, GST-POB1 EH domain double mutant K312A-K351A (human) (UniProt Q8NFH8).
T12 sequence: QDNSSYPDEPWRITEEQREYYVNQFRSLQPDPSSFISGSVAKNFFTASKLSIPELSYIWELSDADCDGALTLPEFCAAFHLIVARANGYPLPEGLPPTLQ
The test is described as above.

Test [14] has as its target T13, GST-POB1 EH domain K312A (human) (UniProt Q8NFH8).
T13 sequence: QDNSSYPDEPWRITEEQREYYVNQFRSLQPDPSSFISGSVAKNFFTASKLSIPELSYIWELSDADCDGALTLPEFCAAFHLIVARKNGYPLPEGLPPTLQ
The test is described as above.

The target in test [15] is T14, GST-POB1 EH domain K351A (human) (UniProt Q8NFH8).
T14 sequence: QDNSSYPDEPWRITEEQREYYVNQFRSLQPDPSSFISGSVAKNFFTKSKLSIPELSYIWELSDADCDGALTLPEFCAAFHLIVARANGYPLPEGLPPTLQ
The description is as above.

For test [16], the target named is T2, EH domain of POB1 fused to GST (human). The description is as above.

As to Epsin1 (from UniProt Q9Y6I3 1-576), the binding result in [1] and in [2] was “binds” throughout.

B1: full-length POB1 fused to the Myc epitope (protein, UniProt Q8NFH8 1-660)
chain: MEAAAAAAAAAAAAAAAGGGCGSGPPPLLLSEGEQQCYSELFARCAGAAGGGPGSGPPEAARVAPGTATAAAGPVADLFRASQLPAETLHQITELCGAKRVGYFGPTQFYIALKLIAAAQSGLPVRIESIKCELPLPRFMMSKNDGEIRFGNPAELHGTKVQIPYLTTEKNSFKRMDDEDKQQETQSPTMSPLASPPSSPPHYQRVPLSHGYSKLRSSAEQMHPAPYEARQPLVQPEGSSSGGPGTKPLRHQASLIRSFSVERELQDNSSYPDEPWRITEEQREYYVNQFRSLQPDPSSFISGSVAKNFFTKSKLSIPELSYIWELSDADCDGALTLPEFCAAFHLIVARKNGYPLPEGLPPTLQPEYLQAAFPKPKWDCQLFDSYSESLPANQQPRDLNRMEKTSVKDMADLPVPNQDVTSDDKQALKSTINEALPKDVSEDPATPKDSNSLKARPRSRSYSSTSIEEAMKRGEDPPTPPPRPQKTHSRASSLDLNKVFQPSVPATKSGLLPPPPALPPRPCPSQSEQVSEAELLPQLSRAPSQAAESSPAKKDVLYSQPPSKPIRRKFRPENQATENQEPSTAASGPASAATMKPHPTVQKQSSKQKKAIQTAIRKNKEANAVLARLNSELQQQLKEVHQERIALENQLEQLRPVTVL
As to B1, the binding result in test [3], in [4], in test [5], in test [6], in test [7] and in test [8] was “binds” each time. Further, the binding entry in [9] and in [10] was “binds” in each case.

B2: full length Eps15 (endogenous, Hek293) (protein, UniProt P42566 1-896)
chain: MAAAAQLSLTQLSSGNPVYEKYYRQVDTGNTGRVLASDAAAFLKKSGLPDLILGKIWDLADTDGKGILNKQEFFVALRLVACAQNGLEVSLSSLNLAVPPPRFHDTSSPLLISGTSAAELPWAVKPEDKAKYDAIFDSLSPVNGFLSGDKVKPVLLNSKLPVDILGRVWELSDIDHDGMLDRDEFAVAMFLVYCALEKEPVPMSLPPALVPPSKRKTWVVSPAEKAKYDEIFLKTDKDMDGFVSGLEVREIFLKTGLPSTLLAHIWSLCDTKDCGKLSKDQFALAFHLISQKLIKGIDPPHVLTPEMIPPSDRASLQKNIIGSSPVADFSAIKELDTLNNEIVDLQREKNNVEQDLKEKEDTIKQRTSEVQDLQDEVQRENTNLQKLQAQKQQVQELLDELDEQKAQLEEQLKEVRKKCAEEAQLISSLKAELTSQESQISTYEEELAKAREELSRLQQETAELEESVESGKAQLEPLQQHLQDSQQEISSMQMKLMEMKDLENHNSQLNWCSSPHSILVNGATDYCSLSTSSSETANLNEHVEGQSNLESEPIHQESPARSSPELLPSGVTDENEVTTAVTEKVCSELDNNRHSKEEDPFNVDSSSLTGPVADTNLDFFQSDPFVGSDPFKDDPFGKIDPFGGDPFKGSDPFASDCFFRQSTDPFATSSTDPFSAANNSSITSVETLKHNDPFAPGGTVVAASDSATDPFASVFGNESFGGGFADFSTLSKVNNEDPFRSATSSSVSNVVITKNVFEETSVKSEDEPPALPPKIGTPTRPCPLPPGKRSINKLDSPDPFKLNDPFQPFPGNDSPKEKDPEIFCDPFTSATTTTNKEADPSNFANFSAYPSEEDMIEWAKRESEREEEQRLARLNQQEQEDLELAIALSKSEISEA
As to B2, the binding result is given as “no binding” in [11]; “binds” in [12]; “no binding” in test [13]; “no binding” in test [14]; “no binding” in test [15]; “binds” in test [16].
